Experimental data as given in PubChem BioAssay AID1745853 (National Center for Advancing Translational Sciences (NCATS), 2022).
The list shows a part of the results. The main result of the screen is listed elsewhere. These columns were measured beside it and carry no call.

Assays:
Experiment in all cases: Primary Screen for Target Class Profiling of Small Molecule Inhibitors of Methyltransferases
[1] = target: Glycine N-methyltransferase (Homo sapiens) (UniProt Q14749); conditions: purified enzyme, MTase-Glo SAH luminescence; measured here: GNMT inhibition; at 40 µM; stronger effect = lower value
Outline: (§1)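 Each enzyme was assayed with SAM and its substrate. SAH formation detected by MTase-Glo luminescence; single-point 40 uM screen[…].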

[2] = target: Guanidinoacetate N-methyltransferase (Homo sapiens) (UniProt Q14353); conditions: purified enzyme, MTase-Glo SAH luminescence; measured here: GAMT inhibition; at 40 µM; stronger effect = lower value
Outline: as §1

[3] = target: Histamine N-methyltransferase (Homo sapiens) (UniProt P50135); conditions: purified enzyme, MTase-Glo SAH luminescence; measured here: HNMT inhibition; at 40 µM; stronger effect = lower value
Outline: as §1

[4] = target: Nicotinamide N-methyltransferase (Homo sapiens) (UniProt P40261); conditions: purified enzyme, MTase-Glo SAH luminescence; measured here: NNMT inhibition; at 40 µM; stronger effect = lower value
Outline: as §1

[5] = target: Phenylethanolamine N-methyltransferase (Homo sapiens) (UniProt P11086); conditions: purified enzyme, MTase-Glo SAH luminescence; measured here: PNMT inhibition; at 40 µM; stronger effect = lower value
Outline: as §1
% is set by controls: 0 for no effect and ±100 for the full control effect.

| Compound | activity change, negative = inhibition [1] [%] | activity change, negative = inhibition [2] [%] | activity change, negative = inhibition [3] [%] | activity change, negative = inhibition [4] [%] | activity change, negative = inhibition [5] [%] |
| --- | --- | --- | --- | --- | --- |
| COc1cccc(OC)c1OCCNCC1COc2ccccc2O1 (stereo not drawn) | 4.24 | 13.4 | 10.1 | -5.45 | -1.14 |
| CCOc1ccc(N2C(=O)c3cc4sccc4n3CC2(C)C(=O)NC2CCCC(C)C2C)cc1 (stereo not drawn) | -6.21 | 2.23 | -0.145 | -0.371 | -6.5 |
| Cc1cccc(N2C(=O)c3cc(C(C)(C)C)nn3CC2(C)C(=O)NC2CCCCC2)c1C (stereo not drawn) | -7.33 | -3.88 | -1.76 | -7.99 | -8.05 |
| CC(C)OCCCn1c(=O)c2ccccc2n2c(CCC(=O)NCc3ccc(F)cc3)nnc12 | -7.92 | 2.54 | -2.56 | 5.55 | -4.97 |
| Cc1cccc(N2CCN(S(=O)(=O)c3cc4[nH]c(=O)[nH]c4cc3Br)CC2)c1C | 0.163 | 0 | 5.24 | 9.28 | 1.95 |
| CCCn1c(=O)c2ccc(C(=O)NC(C)CC)cc2n2c(=O)n(CC(=O)Nc3cccc(CC)c3)nc12 (stereo not drawn) | 3.1 | 0 | 9.64 | 4.06 | 6.99 |
| CC1(C(=O)N2CCCC(CCc3ccc(F)c(F)c3)C2)CC1 (stereo not drawn) | -3.71 | -1.28 | -3.42 | -9.13 | -2.97 |
| CCCCNC(=O)c1ncn2c1C(=O)N(C1CC1)C(C)(C(=O)NCc1ccc(OC)cc1)C2 (stereo not drawn) | 1.28 | 0 | 11.6 | 5.4 | 5.26 |
| COc1cccc(CN2C(=O)c3cc4ccccc4n3CC2(C)C(=O)NCc2ccccc2OC)c1 (stereo not drawn) | 1.17 | 6.86 | 3.25 | -2.38 | -2.82 |
| Cc1ccc([S+](=O)([O-])N2CC3(Cc4ccccc4N([S+](C)(=O)[O-])C3)C2)cc1 | -7.87 | -6.96 | -6.14 | -11.9 | 0.71 |
| CCOc1ccc(N2C(=O)c3cc4ccccc4n3CC2(C)C(=O)NC2CCCC2)cc1 (stereo not drawn) | -2.02 | 3.55 | 1.9 | 4.19 | 0.593 |
| CCCNC(=O)c1cc2n(n1)CC(C)(C(=O)NC1CCCCCC1)N(C)C2=O (stereo not drawn) | 7.5 | 0 | 9.74 | 8.26 | 2.54 |
| Cn1c(=O)n([C@H]2CCCN(S(=O)(=O)c3ccc4c(c3)OCCO4)C2)c2ncccc21 | 1.42 | 3.12 | 12 | -7.91 | 8.64 |
| CC1CCN(CCNC(=O)c2cc3cn(C(C)C)cc3s2)CC1 | -7.3 | -3.58 | -39.3 | -9.98 | -0.142 |
| CN1CC(C(=O)NCc2cccs2)NC1=O (stereo not drawn) | -0.762 | 3.36 | 1.08 | -1.93 | -0.63 |
| COc1ccc(CN2CCN(c3nc4ccccc4o3)CC2CCO)c(F)c1 (stereo not drawn) | -2.12 | -10.4 | -1.34 | -14 | -3.74 |
| CCOCCCNC(=O)C1c2c(n(C)c3ccccc23)SCC(=O)N1c1cc(OC)cc(OC)c1 (stereo not drawn) | 6.09 | 0 | -1.38 | 1.39 | 5.55 |
| COc1ccc(C(=O)N2CCCC2c2nc(CCOc3cccc(C)c3)no2)cn1 (stereo not drawn) | -0.404 | 2.65 | 0.868 | -1.62 | 4.32 |
| NC(Cc1c[nH]c2ccccc12)C(=O)NC(CCC(=O)O)C(=O)O (stereo not drawn) | 3.06 | -3.38 | -0.759 | -12.1 | -6.55 |
| C=Cc1ccc(Cn2nc3n(CCc4ccccc4)c(=O)c4ccccc4n3c2=O)cc1 | -2.65 | 3.16 | 4.2 | -1.57 | -2 |
| CC1(C)C2CCC(CO[C@@H]3O[C@H](CO[C@@H]4OC[C@](O)(CO)[C@H]4O)[C@@H](O)[C@H](O)[C@H]3O)C1C2 (stereo partly drawn) | 0 | 7.63 | 9.91 | -3.58 | 7.9 |
| C=C1CCC2C(C)(C)CCC[C@]2(C)[C@H]1CC/C(C)=C/C(=O)O (stereo partly drawn) | -12.8 | -3.59 | 0.367 | -32.8 | -1.03 |
| CC(C)CCNC(=O)C1(C)Cn2c(c(-n3cccc3)c3ccccc32)C(=O)N1Cc1ccco1 (stereo not drawn) | 7.5 | 0.223 | 4.54 | 4.81 | 3.06 |
| CCCCCCCCCCC(O)C1C=CC2C(=O)N(c3ccccc3)C(=O)C2N1Nc1ccc([N+](=O)[O-])cc1 (stereo not drawn) |  | -14.3 |  | -30.2 | -6.79 |
| O=C1COc2ccc(-c3cccc(O)c3)nc2CN1Cc1ccc(C(F)(F)F)cc1 | -67.4 | -61.5 | -75 | -64.7 | -50.5 |
| C[C@@H]1C[C@H](O)/C=C/[C@H](O)[C@@H](O)CC(=O)O1 | -0.637 | -4.07 | -5.38 | -14.7 | -1.53 |
| Cc1ccc(CN2CCC3(CC2)CCN(Cc2ccco2)CC3CO)s1 (stereo not drawn) | -0.775 | -1.98 | -4.72 | -4.58 | 1.36 |
